In PMC7588011, “Engineering Stem Cell Factor Ligands with Different c-Kit Agonistic Potencies” (Molecules, 2020):

Molecular target: T1, recombinant c-Kit (R&D Systems) (UniProt P10721 partial chain)
T1 construct: c-Kit receptor tyrosine kinase, recombinant; No catalogue number printed; the discussion calls it 'recombinant soluble c-Kit'; also called surface-immobilized c-Kit; recombinant soluble c-Kit; source: bought: R&D Systems
Test: SPR; ProteOn XPR36; c-Kit amine-coupled to a GLC chip; SCF proteins flowed in PBST at 100 µL/min, 25 °C; KD from the equilibrium-binding phase, 1:1 Langmuir model; BSA channel subtracted
Conditions: both partners purified

T1 sequence (P10721 26-524): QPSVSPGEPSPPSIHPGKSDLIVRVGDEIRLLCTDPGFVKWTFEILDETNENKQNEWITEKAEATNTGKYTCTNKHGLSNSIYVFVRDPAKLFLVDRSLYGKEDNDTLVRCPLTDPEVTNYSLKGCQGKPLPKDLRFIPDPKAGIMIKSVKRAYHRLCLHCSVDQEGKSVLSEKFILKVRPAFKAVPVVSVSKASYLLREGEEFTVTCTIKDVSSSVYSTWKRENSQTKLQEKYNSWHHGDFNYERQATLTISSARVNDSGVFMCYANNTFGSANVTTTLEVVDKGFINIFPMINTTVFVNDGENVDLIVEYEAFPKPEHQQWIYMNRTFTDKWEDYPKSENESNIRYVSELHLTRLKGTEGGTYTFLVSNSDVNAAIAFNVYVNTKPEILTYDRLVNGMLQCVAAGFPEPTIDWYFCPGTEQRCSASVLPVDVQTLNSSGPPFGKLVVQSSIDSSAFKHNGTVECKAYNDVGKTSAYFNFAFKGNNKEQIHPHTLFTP

Kd: 146 nM
B1: SCFM, stem cell factor V49L F63L double mutant, soluble (ligand)
chain: not shown
notes: stem cell factor (SCF) with V49L and F63L; also called SCFM V49L F63L; SCF monomer; source: purified in non-glycosylated form (production described in the Supplementary Materials)
